{
  "source": "PubChem BioAssay AID1346428",
  "about": "(National Center for Advancing Translational Sciences (NCATS), 2018)",
  "note": "The campaign covered roughly 48,000 compounds. About 1,200 (2.5%) were called active. Not shown: some 2% with an inconclusive outcome.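 Rule for the calls: active = activation of at least 60% and not above a set upper limit (about 1 call in 100 departs from these limits); inconclusive = activation of 40% to 60%, or above that upper limit; inactive = activation under 40%.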 Some of the results follow.",
  "data": [
    {"biological_target": "Probable G-protein coupled receptor 32 (Homo sapiens) (UniProt O75388)", "sequence (O75388 whole entry, looked up)": "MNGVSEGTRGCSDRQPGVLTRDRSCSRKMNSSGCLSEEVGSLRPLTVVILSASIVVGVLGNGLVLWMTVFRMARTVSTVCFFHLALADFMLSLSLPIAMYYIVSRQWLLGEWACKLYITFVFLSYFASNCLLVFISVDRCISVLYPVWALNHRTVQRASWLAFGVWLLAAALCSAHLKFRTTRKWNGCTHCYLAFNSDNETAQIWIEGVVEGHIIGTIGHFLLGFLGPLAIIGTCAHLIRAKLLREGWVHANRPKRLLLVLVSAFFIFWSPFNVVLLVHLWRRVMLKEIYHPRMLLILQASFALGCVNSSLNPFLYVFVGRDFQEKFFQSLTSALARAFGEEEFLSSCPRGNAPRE", "assay": "qHTS for Agonists of Human Resolvin D1 Receptor DRV1; note: 0% is about no effect", "conditions": "CHO-K1 GPR32 beta-arrestin PathHunter luminescence, 90 min; at 76.9 µM; stronger effect = higher value; zero percent set by DMSO-only wells", "summary_of_the_method": "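Cells are plated overnight, treated with compounds in DMSO for 90 minutes at 37 °C, and developed with PathHunter detection reagent for 1 hour before luminescence is read; signal reflects beta-arrestin binding to GPR32 in engineered CHO-K1 cells.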", "values": [
      {"smiles": "Cc1ccc(C)c(NC(=O)c2cc(=O)c3cc(C)cc(C)c3o2)c1", "activation": "inactive: -30.5%"},
      {"smiles": "Cc1ccc(NC(=O)Cn2c(=O)ccc3cc(S(=O)(=O)N4CCC(C)CC4)ccc32)cc1Cl", "activation": "inactive: -7.17%"},
      {"smiles": "CC(C)C(=O)OCc1cc(=O)n2nc(C3CCCCC3)sc2n1", "activation": "inactive: -8.93%"},
      {"smiles": "Cc1ccc(NC(=O)CSc2nnc(N)s2)c(C)c1", "activation": "inactive: -0.0851%"},
      {"smiles": "COc1ccc(CNC(=O)C2CCN(S(=O)(=O)c3cccc4nonc34)CC2)cc1OC", "activation": "inactive: -21%"},
      {"smiles": "CCc1ccc(NCc2cc3cc4c(cc3n(CC(=O)Nc3ccc(F)cc3)c2=O)OCCO4)cc1", "activation": "inactive: -55%"},
      {"smiles": "COCCNc1ncnc2c1c(-c1ccccc1)cn2-c1cccc(Cl)c1", "activation": "inactive: -32.5%"},
      {"smiles": "CCCCNC(=O)CCc1c(C)nc2c(c(C)nn2-c2ccccc2)c1C", "activation": "inactive: 21.7%"},
      {"smiles": "CCN(CC)c1ccc(C2C(C(N)=O)=C(C)Nc3ncnn32)cc1", "note": "(stereo not given)", "activation": "inactive: 22.7%"},
      {"smiles": "Cn1ccnc1SCC(=O)Nc1cc(Cl)ccc1Cl", "activation": "inactive: -4.3%"},
      {"smiles": "Cc1ccc(NC(=O)C2CCCN2S(=O)(=O)c2cccc3cccnc23)cc1C", "note": "(stereo not given)", "activation": "inactive: -7.03%"},
      {"smiles": "Cc1cccc(CS(=O)(=O)c2ncc(Cl)c(C(=O)NCc3ccccc3)n2)c1", "activation": "inactive: -29.1%"},
      {"smiles": "COc1cccc(OCc2nc3ccccc3n2CCOc2cccc(C)c2)c1", "activation": "inactive: -28.4%"},
      {"smiles": "O=C(NCCc1ccccc1)c1cc(Sc2ccc(F)cc2F)nc2ccccc12", "activation": "inactive: -17.2%"},
      {"smiles": "COc1ccccc1N1CCN(C(CNC(=O)C(=O)NCCc2ccccc2)c2cccnc2)CC1", "note": "(stereo not given)", "activation": "inactive: 35.8%"},
      {"smiles": "Cc1ccccc1CN1CCCN(CC(=O)Nc2c(C)cccc2C)S1(=O)=O", "activation": "inactive: -9.71%"},
      {"smiles": "Cc1cc(O)c(C(C)C)cc1Cl", "activation": "active: 85.6%"},
      {"smiles": "Fc1ccc(CNc2nc(-c3ccccc3)cc(C(F)(F)F)n2)cc1", "activation": "inactive: 9.87%"},
      {"smiles": "Cn1c(=O)c2c(nc(SCC(=O)Nc3ccc(F)cc3)n2Cc2ccccc2)n(C)c1=O", "activation": "inactive: 2.09%"},
      {"smiles": "CCC(C(=O)Nc1ccc(C(C)=O)cc1)n1c(C)c2cnn(-c3ccccc3)c(=O)c2c1C", "note": "(stereo not given)", "activation": "inactive: 0%"},
      {"smiles": "CCOc1ccc(CCNC(=O)c2ccc3nc(CC)c(CC)nc3c2)cc1", "activation": "inactive: -35.6%"},
      {"smiles": "O=C(Nc1ccc(F)cc1F)c1ccc2c(=O)n3c(nc2c1)CCCCC3", "activation": "inactive: 28.6%"},
      {"smiles": "COc1ccccc1-c1cc(C(=O)Nc2cc(Cl)ccc2O)no1", "activation": "inactive: 18.2%"},
      {"smiles": "CCOc1ccc(CNC(=O)c2cnc3sc(N4CCC(C)CC4)nn3c2=O)cc1OC", "activation": "inactive: 22.6%"},
      {"smiles": "Cc1c(C(=O)N(C)c2cccc(C(F)(F)F)c2)sc2nc3n(c(=O)c12)CCCCC3", "activation": "inactive: -25.8%"},
      {"smiles": "CCOc1ccc(OCC(=O)Nc2c(C(=O)Nc3ccc(C)cc3)oc3ccccc23)cc1", "activation": "inactive: -2.54%"},
      {"smiles": "O=S(=O)(Nc1cccc(-c2ccc(N3CCCCC3)nn2)c1)c1ccc(Cl)s1", "activation": "inactive: -6.32%"},
      {"smiles": "Fc1ccc(CNc2nc3ccc(Cl)cc3n3nnnc23)cc1", "activation": "inactive: 2.15%"},
      {"smiles": "COc1cccc(-n2c(=O)c3sc4ccccc4c3n(CC(=O)Nc3cccc(Cl)c3)c2=O)c1", "activation": "inactive: -4.43%"},
      {"smiles": "O=c1[nH]c(=O)n([C@H]2C[C@@H](O)[C@@H](CO)O2)cc1C=CBr", "activation": "inactive: 4.16%"},
      {"smiles": "CCSc1ncc(Cl)c(C(=O)N2CCN(c3ccc(OC)cc3)CC2)n1", "activation": "inactive: 1.4%"},
      {"smiles": "C=Cc1ccc(Cn2c(=O)n(-c3cccc(C)c3)c(=O)c3c2c2cc(C)ccc2n3C)cc1", "activation": "inactive: 10.3%"},
      {"smiles": "O=S(=O)(c1cccc(Cl)c1)c1nnn2c1nc(NC1CCCCCC1)c1sccc12", "activation": "inactive: 3.97%"},
      {"smiles": "CCN(CC)CCCNC(=O)c1ccc2nc(CCc3ccccc3)oc2c1", "activation": "inactive: -12.2%"},
      {"smiles": "O=C(Nc1ccc2c(c1)N(C1CCCC1)C(=O)c1ccccc1S2)c1ccc(F)cc1", "activation": "inactive: -5.8%"},
      {"smiles": "CCN(CC)c1ccc(NC(=O)C2COc3ccc(OC)cc3C2)c(C)c1", "note": "(stereo not given)", "activation": "inactive: -6.65%"},
      {"smiles": "COC(=O)N[C@H](C(=O)N[C@@H](Cc1ccccc1)[C@@H](O)CN(Cc1ccc(-c2ccccn2)cc1)NC(=O)[C@@H](NC(=O)OC)C(C)(C)C)C(C)(C)C", "activation": "inactive: -3.75%"},
      {"smiles": "Cc1ccc(S(=O)(=O)c2c(C)nn(-c3ccccc3)c2OC(=O)c2ccccc2F)cc1", "activation": "inactive: 11%"},
      {"smiles": "O=C(NC1CC(=O)N(c2ccc(Cl)cc2)C1)c1ccc(S(=O)(=O)N2CCCC2)cc1", "note": "(stereo not given)", "activation": "inactive: 5.38%"},
      {"smiles": "Cc1ccccc1CSc1nnc2[nH]c(=O)cc(C)n12", "activation": "inactive: 15.2%"},
      {"smiles": "O=C(Cn1cc(S(=O)(=O)Cc2ccc(F)cc2)c2ccccc21)NCc1ccccc1Cl", "activation": "inactive: -14.4%"},
      {"smiles": "O=C(NCCCc1nc2ccccc2n1Cc1ccc(Cl)cc1)c1ccco1", "activation": "inactive: -16%"},
      {"smiles": "CCOc1ccc(NC(=O)CSc2nnc(-c3ccc(C)cc3)c(-c3ccc(C)cc3)n2)cc1", "activation": "inactive: -19.4%"},
      {"smiles": "Cc1oc2ncn(CC(C)C)c(=O)c2c1C(=O)NCCCN(Cc1ccccc1)C(C)C", "activation": "inactive: -6.15%"},
      {"smiles": "CNC[C@H](O)[C@@H](O)[C@H](O)[C@H](O)CO", "activation": "inactive: -6.57%"},
      {"smiles": "COc1ccc(-n2c(SCc3ccccc3F)nc3c([nH]c4ccccc43)c2=O)cc1", "activation": "inactive: 32.5%"},
      {"smiles": "Nc1ccc(S(=O)(=O)Nc2cnc3ccccc3n2)cc1", "activation": "inactive: -26.9%"},
      {"smiles": "Cc1ccccc1N1CCN(S(=O)(=O)c2nnc(NC(=O)c3ccc(Cl)cc3)s2)CC1", "activation": "inactive: 10.6%"},
      {"smiles": "CCOc1ccccc1NS(=O)(=O)c1cnc(N)nc1", "activation": "inactive: -13.8%"},
      {"smiles": "CCc1cccc(C)c1NC(=O)CSc1nnc(N)s1", "activation": "active: 93.6%"},
      {"smiles": "COc1ccc(CCNC(=O)C(=O)NCC(c2ccco2)S(=O)(=O)c2ccccc2)cc1OC", "note": "(stereo not given)", "activation": "inactive: -7.03%"},
      {"smiles": "COc1ccc(CCNC(=O)CS(=O)Cc2nc(-c3ccc(C)cc3)oc2C)c(OC)c1", "note": "(stereo not given)", "activation": "inactive: -10.3%"},
      {"smiles": "O=C(Cn1c(=O)nc(-c2ccccc2)c2ccccc21)NCCCc1ccccc1", "activation": "inactive: 23.1%"},
      {"smiles": "CCc1cccc(NCc2ccccc2-c2nnc(-c3ccccc3Cl)o2)c1", "activation": "inactive: -18%"},
      {"smiles": "CCCC12CN3CC(C)(CN(C1)C3c1cn(C)c3ccccc13)C2=O", "note": "(stereo not given)", "activation": "inactive: -0.244%"}
    ]}
  ]
}
